The results in this text go back to paper PMC7588591.

The chains behind the UniProt entries cited, without tags or fusion partners.
UniProt Q7Z434: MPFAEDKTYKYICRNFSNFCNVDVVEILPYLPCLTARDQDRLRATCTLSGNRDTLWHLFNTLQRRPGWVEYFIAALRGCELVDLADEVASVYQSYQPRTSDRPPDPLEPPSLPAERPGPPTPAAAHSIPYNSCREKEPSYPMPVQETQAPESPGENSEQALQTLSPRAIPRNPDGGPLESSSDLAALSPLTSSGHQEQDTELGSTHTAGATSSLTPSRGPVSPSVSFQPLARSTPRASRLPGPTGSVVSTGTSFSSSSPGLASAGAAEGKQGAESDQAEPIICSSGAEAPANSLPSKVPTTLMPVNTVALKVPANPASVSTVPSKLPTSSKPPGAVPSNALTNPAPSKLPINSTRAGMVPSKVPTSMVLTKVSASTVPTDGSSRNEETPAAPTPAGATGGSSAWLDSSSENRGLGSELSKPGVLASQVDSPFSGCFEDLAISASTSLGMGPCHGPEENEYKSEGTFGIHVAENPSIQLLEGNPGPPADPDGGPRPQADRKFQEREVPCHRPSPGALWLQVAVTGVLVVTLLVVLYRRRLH

No constants are given. Whether binding was seen depends on the method and setting. For part of these data: Binding seen in cells or lysates may run through a third protein. Some results given as binding are weak or reduced against the parent protein; the word gives no strength. For part of these data: Where a sequence is shown, tags or fusion partners need not be part of it.

In assay [1] the target is endogenous MAVS (human (endogenous in HEK293)) (UniProt Q7Z434). Put plainly: co-IP.
For assay [2], the target named is MAVS (tagged, transfected) (UniProt Q7Z434). Put plainly: co-IP.
The target of assay [3] is T1, MDA5 (tagged, transfected) (UniProt Q9BYX4).
T1 sequence: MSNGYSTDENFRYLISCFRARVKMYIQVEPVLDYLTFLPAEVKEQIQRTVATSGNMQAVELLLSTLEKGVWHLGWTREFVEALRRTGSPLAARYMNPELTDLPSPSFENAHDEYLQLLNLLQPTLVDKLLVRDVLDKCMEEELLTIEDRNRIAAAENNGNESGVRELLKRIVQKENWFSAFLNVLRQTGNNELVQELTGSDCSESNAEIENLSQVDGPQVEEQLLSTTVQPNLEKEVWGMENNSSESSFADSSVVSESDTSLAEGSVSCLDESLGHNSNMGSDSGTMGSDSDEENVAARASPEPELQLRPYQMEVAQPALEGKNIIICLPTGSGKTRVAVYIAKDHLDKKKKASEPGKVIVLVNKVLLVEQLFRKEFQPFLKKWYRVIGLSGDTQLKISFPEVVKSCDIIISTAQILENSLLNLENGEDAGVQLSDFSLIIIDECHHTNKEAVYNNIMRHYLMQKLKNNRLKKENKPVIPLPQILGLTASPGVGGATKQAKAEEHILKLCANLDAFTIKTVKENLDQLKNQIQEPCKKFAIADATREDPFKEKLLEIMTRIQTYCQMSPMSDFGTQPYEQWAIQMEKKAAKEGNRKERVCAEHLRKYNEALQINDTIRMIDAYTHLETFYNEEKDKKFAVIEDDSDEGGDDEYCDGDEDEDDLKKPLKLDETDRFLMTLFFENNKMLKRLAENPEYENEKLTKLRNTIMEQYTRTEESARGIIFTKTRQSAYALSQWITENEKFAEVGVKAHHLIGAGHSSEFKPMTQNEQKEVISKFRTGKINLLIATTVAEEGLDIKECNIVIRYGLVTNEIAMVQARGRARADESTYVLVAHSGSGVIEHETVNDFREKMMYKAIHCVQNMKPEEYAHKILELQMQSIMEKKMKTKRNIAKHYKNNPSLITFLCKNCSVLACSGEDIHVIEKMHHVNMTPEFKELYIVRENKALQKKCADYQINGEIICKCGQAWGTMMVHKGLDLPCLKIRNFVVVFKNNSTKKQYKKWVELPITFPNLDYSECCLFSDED
The assay is described as follows: co-IP.

Assay [4] has as its target T2, RIG-I (tagged, transfected) (UniProt O95786).
T2 sequence: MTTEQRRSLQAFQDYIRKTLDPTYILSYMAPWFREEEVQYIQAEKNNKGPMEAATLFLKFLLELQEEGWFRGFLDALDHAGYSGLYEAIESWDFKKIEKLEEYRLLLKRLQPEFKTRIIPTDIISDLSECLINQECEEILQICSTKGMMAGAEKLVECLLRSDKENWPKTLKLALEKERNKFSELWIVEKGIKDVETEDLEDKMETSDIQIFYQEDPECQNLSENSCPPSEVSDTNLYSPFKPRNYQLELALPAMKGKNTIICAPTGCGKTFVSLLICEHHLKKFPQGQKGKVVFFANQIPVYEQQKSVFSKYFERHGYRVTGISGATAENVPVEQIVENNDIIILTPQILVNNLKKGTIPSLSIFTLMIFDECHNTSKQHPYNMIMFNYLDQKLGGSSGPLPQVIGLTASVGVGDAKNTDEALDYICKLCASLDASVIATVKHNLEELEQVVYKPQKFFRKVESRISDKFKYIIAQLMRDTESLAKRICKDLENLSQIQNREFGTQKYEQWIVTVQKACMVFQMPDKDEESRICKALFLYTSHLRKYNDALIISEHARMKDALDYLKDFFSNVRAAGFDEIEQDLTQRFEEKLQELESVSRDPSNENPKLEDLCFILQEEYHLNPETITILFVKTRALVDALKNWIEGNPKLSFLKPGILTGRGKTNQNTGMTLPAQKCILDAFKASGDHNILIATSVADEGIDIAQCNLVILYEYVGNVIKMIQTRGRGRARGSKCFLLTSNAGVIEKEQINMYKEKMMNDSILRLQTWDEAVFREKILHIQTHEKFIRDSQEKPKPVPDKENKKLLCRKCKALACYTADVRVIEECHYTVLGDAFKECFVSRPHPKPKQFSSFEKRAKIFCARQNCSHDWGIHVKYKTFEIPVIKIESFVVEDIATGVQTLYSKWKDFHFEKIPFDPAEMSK
The assay is described as follows: co-IP.

For assay [5], the target named is T3, TBK1 (tagged, transfected, co-IP) (UniProt Q9UHD2).
T3 sequence: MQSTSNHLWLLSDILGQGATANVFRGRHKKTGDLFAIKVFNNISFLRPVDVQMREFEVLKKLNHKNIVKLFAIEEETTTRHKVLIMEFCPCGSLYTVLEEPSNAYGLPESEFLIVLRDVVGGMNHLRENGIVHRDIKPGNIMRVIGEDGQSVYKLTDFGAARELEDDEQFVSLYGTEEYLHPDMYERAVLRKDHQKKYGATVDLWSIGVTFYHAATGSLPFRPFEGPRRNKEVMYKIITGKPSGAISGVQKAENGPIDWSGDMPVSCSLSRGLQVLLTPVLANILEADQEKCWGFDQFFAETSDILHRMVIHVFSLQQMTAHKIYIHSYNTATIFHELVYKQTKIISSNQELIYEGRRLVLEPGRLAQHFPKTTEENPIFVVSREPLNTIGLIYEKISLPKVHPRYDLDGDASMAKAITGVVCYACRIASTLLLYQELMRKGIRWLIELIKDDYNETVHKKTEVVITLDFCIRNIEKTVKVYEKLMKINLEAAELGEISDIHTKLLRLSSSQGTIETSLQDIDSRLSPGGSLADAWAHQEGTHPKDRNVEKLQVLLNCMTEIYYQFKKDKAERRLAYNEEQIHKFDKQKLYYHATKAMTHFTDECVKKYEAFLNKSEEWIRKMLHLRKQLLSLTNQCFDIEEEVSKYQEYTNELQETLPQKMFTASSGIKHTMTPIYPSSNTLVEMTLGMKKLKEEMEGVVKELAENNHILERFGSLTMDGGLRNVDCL
The assay is described as follows: co-IP.

The target in assay [6] is endogenous MAVS (human (endogenous in HEK293)) (UniProt Q7Z434). The assay is described as follows: semidenaturing detergent agarose gel electrophoresis (SDD-AGE).

“Flag-tagged M (HEK293 cells expressing it) (from UniProt P0DTC5 1-222)”: the binding entry in assay [1] is given as “binds”.

In the case of “SARS-CoV-2 membrane glycoprotein M (tagged, transfected) (from UniProt P0DTC5 1-222)”, the binding result in assay [2] was “binds”; in assay [3] it was “no binding”; in assay [4] it was “no binding”; in assay [5] it was “no binding”; in assay [6], “binds”.
